Laboratory results: the supplement of paper PMC9135407
Where “and” joins values, the source holds several entries; their conditions need not be identical. Equal values may be shown once. Where a name gives a salt, the structure may show the parent alone. In all, about 5,800 compounds went through this assay and about 620 (11%) showed activity.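 Rule for the calls: active = score above a cut-off or among the top three wells of a plate; in these data no inactive exceeds 0.85.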 The entries are a selection whose mix differs from that of the whole data set.

Tested on: primary human hepatic stellate cells (donor 1)
Test: scaled lipid accumulation score (0 = DMSO-like, 1 = nortriptyline-like); higher = stronger HSC inactivation (lipid re-accumulation), active = hit call of the paper
Settings: 48 h
Protocol: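 Primary lipid accumulation screen in primary human hepatic stellate cell myofibroblasts (donor 1, passage 8) in 384-well plates. 100 nL of library compound was pin-transferred into 30 µL medium in duplicate, and cells were treated for 48 h. The 'Scaled' score combines distance from plate baseline, toxicity and reproducibility penalties, and is normalised to nortriptyline (positive) and DMSO (negative) controls on each plate. A hit is defined as scaled >0.85 or among the top 3 wells per plate.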

[1] = library stock concentration: 10 mM
[2] = library stock concentration: 3.33 mM
[3] = library stock concentration: 400 uM
[4] = library stock concentration: 1 mM

With `Cc1cc(N)c2ccccc2[n+]1CCCCCCCCCC[n+]1c(C)cc(N)c2ccccc21` [Dequalinium dichloride] the “scaled lipid accumulation score” value was inactive: 0.249.

In the case of `Cc1cc(N)c2ccccc2[n+]1CCCCCCCCCC[n+]1c(C)cc(N)c2ccccc21` [Dequalinium chloride hydrate], the “scaled lipid accumulation score” value [1] is reported as inactive: ≤ -0.07.

`Cc1cc(N)c2ccccc2[n+]1CCCCCCCCCC[n+]1c(C)cc(N)c2ccccc21` [Dequalinium chloride] was tested, and the “scaled lipid accumulation score” value [1] was inactive: 0.037.

With `CCc1c(Cl)c(O)c(Cl)c(O)c1C(=O)O[C@H]1[C@H](O)[C@H](OC)[C@H](OC/C2=C\C=C\C[C@H](O)/C(C)=C/[C@H](CC)[C@@H](O[C@@H]3OC(C)(C)[C@@H](OC(=O)C(C)C)[C@H](O)[C@@H]3O)/C(C)=C/C(C)=C/C[C@@H]([C@@H](C)O)OC2=O)O[C@@H]1C` [Fidaxomicin] the “scaled lipid accumulation score” value [2] was inactive: ≤ 0 and the “scaled lipid accumulation score” value [1] was inactive: 0.125.

For `Nc1ccn([C@@H]2CS[C@H](CO)O2)c(=O)n1`, the “scaled lipid accumulation score” value (library stock concentration: 9.9 mM) was inactive: ≤ 0 and the “scaled lipid accumulation score” value [1] was inactive: ≤ 0.

In the case of `Nc1ccn([C@@H]2CS[C@H](CO)O2)c(=O)n1` [Lamivudine], the “scaled lipid accumulation score” value [2] is reported as inactive: 0.011 and the “scaled lipid accumulation score” value [1] is reported as inactive: ≤ 0.

In the case of `CN1Cc2c(N)cccc2C(c2ccccc2)C1` (stereo unspecified) [Nomifensine maleate], the “scaled lipid accumulation score” value is reported as inactive: 0.598 and the “scaled lipid accumulation score” value [1] is reported as inactive: 0.285 and inactive: ≤ -0.027.

`CN(C)C/C=C/C(=O)Nc1cc2c(Nc3ccc(F)c(Cl)c3)ncnc2cc1O[C@H]1CCOC1` [Afatinib (BIBW2992)] was tested, and the “scaled lipid accumulation score” value [1] was inactive: 0.323.

`CN(C)C/C=C/C(=O)Nc1cc2c(Nc3ccc(F)c(Cl)c3)ncnc2cc1O[C@H]1CCOC1` was tested, and the “scaled lipid accumulation score” value (library stock concentration: 80 uM) was inactive: 0.425, the “scaled lipid accumulation score” value [3] was inactive: 0.614 and the “scaled lipid accumulation score” value [1] was inactive: 0.544.

`CN(C)C/C=C/C(=O)Nc1cc2c(Nc3ccc(F)c(Cl)c3)ncnc2cc1O[C@H]1CCOC1` [Afatinib  (TOVOK,  BIBW-2992) (0.4 mM)] was tested, and the “scaled lipid accumulation score” value [3] was inactive: 0.318.

For `CN(C)C/C=C/C(=O)Nc1cc2c(Nc3ccc(F)c(Cl)c3)ncnc2cc1O[C@H]1CCOC1` [Afatinib  (TOVOK,  BIBW-2992) (10 mM)], the “scaled lipid accumulation score” value [1] was inactive: 0.256.

In the case of `OC[C@@H](O)[C@@H](O)[C@@H](O)CO` [Ribitol], the “scaled lipid accumulation score” value [2] is reported as inactive: 0.07 and the “scaled lipid accumulation score” value [1] is reported as inactive: 0.013.

In the case of `O=C(Nc1ccccc1)Nc1ccc(-c2ccc(C(=O)[C@@H]3CCC[C@H]3C(=O)O)cc2)cc1`, the “scaled lipid accumulation score” value [2] is reported as inactive: ≤ 0 and the “scaled lipid accumulation score” value [1] is reported as inactive: ≤ 0.

In the case of `O=C1C(c2ccccc2)N(c2ccc(Br)cc2)C(=O)N1c1ccc(Br)cc1` (stereo unspecified), the “scaled lipid accumulation score” value [4] is reported as inactive: ≤ 0.

For `FC(F)(F)COCC(F)(F)F` [Flurothyl], the “scaled lipid accumulation score” value (library stock concentration: 11 mM) was inactive: ≤ -0.001.

`CCN[C@@H]1C[C@H](N)[C@@H](O[C@H]2OC(CN)=CC[C@H]2N)[C@H](O)[C@H]1O[C@H]1OC[C@](C)(O)[C@H](NC)[C@H]1O` [Netilmicin sulfate] was tested, and the “scaled lipid accumulation score” value (library stock concentration: 3 mM) was inactive: ≤ 0.

`O=C1NC(=O)C(c2ccccc2)(c2ccccc2)N1` [5,5-Diphenylhydantoin] was tested, and the “scaled lipid accumulation score” value [1] was inactive: ≤ -0.07.

In the case of `O=C1NC(=O)C(c2ccccc2)(c2ccccc2)N1` [Phenytoin], the “scaled lipid accumulation score” value [2] is reported as inactive: ≤ 0, the “scaled lipid accumulation score” value (library stock concentration: 7.9 mM) is reported as inactive: ≤ -0.006 and the “scaled lipid accumulation score” value [1] is reported as inactive: ≤ 0.

In the case of `O=C1NC(=O)C(c2ccccc2)(c2ccccc2)N1` [Dilantin], the “scaled lipid accumulation score” value [1] is reported as inactive: ≤ 0.

For `CC(C)(O)c1ccccc1CC[C@@H](SCC1(CC(=O)O)CC1)c1cccc(/C=C/c2ccc3ccc(Cl)cc3n2)c1` [Montelukast (sodium salt)], the “scaled lipid accumulation score” value [4] was inactive: ≤ 0.

In the case of `CC(C)(O)c1ccccc1CC[C@@H](SCC1(CC(=O)O)CC1)c1cccc(/C=C/c2ccc3ccc(Cl)cc3n2)c1` [Montelukast Sodium], the “scaled lipid accumulation score” value [2] is reported as inactive: ≤ 0 and the “scaled lipid accumulation score” value [1] is reported as inactive: ≤ -0.001.

With `CC(C)(O)c1ccccc1CC[C@@H](SCC1(CC(=O)O)CC1)c1cccc(/C=C/c2ccc3ccc(Cl)cc3n2)c1` the “scaled lipid accumulation score” value (library stock concentration: 9.6 mM) was inactive: ≤ 0 and the “scaled lipid accumulation score” value [1] was inactive: 0.182.

With `O=C1NC(=O)C(=Cc2ccc(-c3ccc(F)cc3)o2)S1` (stereo in doubt) the “scaled lipid accumulation score” value [2] was inactive: 0.028 and the “scaled lipid accumulation score” value [1] was inactive: ≤ 0.

For `NS(=O)(=O)c1ccc(-n2nc(C(F)(F)F)cc2-c2ccc(Cl)cc2)cc1`, the “scaled lipid accumulation score” value [1] was inactive: ≤ -0.055.

`COc1cccc(C(=O)NCCN2CCN(c3ccc(Cl)cc3)CC2)c1` was tested, and the “scaled lipid accumulation score” value [1] was inactive: 0.314.

In the case of `CC(C)Oc1ccc(C(=O)N[C@H](CNC(=O)CN(C)C)Cc2ccc(-c3cn4cccc([C@H](C)O)c4n3)cc2)cc1Cl`, the “scaled lipid accumulation score” value [1] is reported as active: 0.882.

In the case of `c1ccc(CNc2ncnc3nc[nH]c23)cc1` [Aminopurine, 6-benzyl], the “scaled lipid accumulation score” value is reported as inactive: ≤ 0.

For `CCCCC[C@@H](O)/C=C/[C@H]1[C@H](O)CC(=O)[C@@H]1C/C=C\CCCC(=O)O` [15(R)-Prostaglandin E2], the “scaled lipid accumulation score” value [4] was inactive: ≤ 0.

`COc1ccc2c(c1)c(CC(=O)Nc1cccnc1)c(C)n2C(=O)c1ccc(Cl)cc1` [N-(3-pyridyl)-Indomethacin amide] was tested, and the “scaled lipid accumulation score” value [4] was inactive: 0.198.

In the case of `CC(=O)Oc1cccc(C)c1` [meta-CRESYL ACETATE], the “scaled lipid accumulation score” value [1] is reported as inactive: ≤ 0.

With `CCCCCCCCCCCCCCCC(=O)NC[C@@H](C)O` [R-Palmitoyl-(2-methyl) Ethanolamide] the “scaled lipid accumulation score” value [4] was inactive: ≤ 0.

`COc1ccc(S(=O)(=O)N(CCO)c2ccccc2CN(C)C/C=C/c2ccc(Cl)cc2)cc1` [KN-93 Phosphate] was tested, and the “scaled lipid accumulation score” value [2] was inactive: 0.441.

For `N#CCCc1ccc2c(c1)-c1[nH]c3ccc([N+](=O)[O-])cc3c1CC(=O)N2` [Alsterpaullone, 2-Cyanoethyl], the “scaled lipid accumulation score” value [2] was inactive: 0.08.
